# Data from ChEMBL document CHEMBL4513135, “CO-ADD screening of IQOG CSIS (Spain) compounds”.
# Values joined by “and” are separate entries in the source; they are usually repeats but may differ in a detail not shown here. Equal entries are not always repeated. This is one part of the list. Potency and affinity values are given separately.
# Test system: Acinetobacter baumannii
# Settings: Concentration 32 ug.mL-1, ASSAY_TEST Inhibition of Bacterial Growth, detection method Absorption (OD600), MEDIA CAMHB, plate type 384well, NBS, CORNING #3640, time 18 hr
SMILES,Inhibition [%],Inhibition (32 ug/mL)
CCOC(=O)C1=C(C)OC(=O)CC1c1ccccc1 (centres undefined),4.99,
Cc1ccccc1C=C(C#N)C#N,-1.06,
Cc1ccc(C=C(C#N)C#N)cc1,4.83,
N#Cc1cc(C#N)c(N2C3CCC2CC3)nc1N,0.47,
CC1CC(=O)Nc2nc3c(c(N)c21)CCCC3 (centres undefined),-1.86,
CN1CC=C(c2cccn2C)CC1.Cl,12.02,
Cc1ccc(S(=O)(=O)N2[C@H]3CC[C@@H]2CC3)cc1,14.13,
CCOC(=O)C1=C(OC)OC(=O)CC1c1ccccc1 (centres undefined),10.2,
NNC(=O)c1cn(Cc2ccccc2)c2ccccc12,-5.74,
Cc1nc(N)c(C#N)cc1C(=O)O,7.05,
CCOC(=O)C1=C(C)NC(=O)CC1c1ccccc1 (centres undefined),11.92,
NNCCCc1c[nH]c2ccccc12.O=C(O)/C=C/C(=O)O,-12.17,
N#CC(C#N)=Cc1ccc(Cl)cc1,-8.56,
CN1CC=C(c2cccn2C)CC1,11.58,
CNCc1cn(C)c2ccc(OC)cc12.Cl,7.55,
C#CCN1CCc2nc3nc(Cl)c(C#N)cc3c(N)c2C1,14.76,
N#CCC(=O)c1ccccc1,-1.94,
Nc1c2c(nc3c1C(c1ccccc1)CC(=O)N3)CCCC2 (centres undefined),1.4,
Cl.ClCCN1CCCCC1,9.08,
COc1ccc2c(c1)cc(C[N+](C)(C)C)n2C.[I-],1.39,

SMILES,Inhibition [%],Inhibition (32 ug/mL)
C#CCN(C)Cc1cc2cc(OCCCC3CCN(Cc4ccc(OC(=O)N(C)C)c5ncccc45)CC3)ccc2n1C,6.07,
COc1ccc(C=C(C#N)C#N)cc1OC,4.3,
Cl.ClCCN1CCCC1,-2.35,
C#CCN(C)Cc1cc2cc(OC(=O)N(C)C)ccc2n1C,16.5,
Nc1c2c(nc3ccccc13)CCN(Cc1ccccc1)C2,20.73,
CCOC(=O)c1cc2cc(OC(=O)NC3CCN(Cc4ccccc4)CC3)ccc2[nH]1,5.68,
C#CCN1CCc2nc3nc(OC)c(C#N)cc3c(N)c2C1,9.91,
NNC(=O)c1cccnc1 [NICOTINIC ACID HYDRAZIDE],4.03,
C#CCN1CCc2nc(N)c(C#N)c(-c3ccccc3)c2C1,,11.67% and 3.28%
C#CCN(C)Cc1cc2cc(OCc3ccc(OC(=O)N(C)C)c4ncccc34)ccc2n1C,9.76,
COc1cc(C2C(C#N)=C(N)Oc3c2ccc2ccccc32)cc(OC)c1OC (centres undefined),6.08,
CN(C)C(=O)Oc1ccc(CCl)c2cccnc12,12.7,
CCOc1nc2nc(C)c(C(=O)O)cc2c(-c2ccccc2)c1C#N,5.2,
CCOC(=O)c1cn(Cc2ccccc2)c2ccccc12,-8.12,
C#CCN1CCc2nc3ncccc3c(N)c2C1.Cl,10.46,
OCC(Cc1cnc[nH]1)NCc1ccccc1 (centres undefined),1.9,
O=C(CBr)NCc1ccccc1,-7.44,
[N-]=[N+]=NCC(=O)c1ccc(Br)cc1,-4.15,
O=C(N1[C@H]2CC[C@@H]1C(c1nnn[nH]1)C2)C(F)(F)F (some centres undefined),17.01,
